From PubChem BioAssay AID1346428 (National Center for Advancing Translational Sciences (NCATS), 2018)
“And” between values parts separate entries of the source, which are not always exact repeats. Equal values may be shown once. Among all 48,000 compounds or so, about 1,200 (2.5%) were called active. Not shown: some 2% with an inconclusive outcome.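 Rule for the calls: active = activation of at least 60% and not above a set upper limit (about 1 call in 100 departs from these limits); inconclusive = activation of 40% to 60%, or above that upper limit; inactive = activation under 40%.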 The list shows a part of the results.

These molecules were tested against Probable G-protein coupled receptor 32 (Homo sapiens) (UniProt O75388) (assay: qHTS for Agonists of Human Resolvin D1 Receptor DRV1). Conditions: CHO-K1 GPR32 beta-arrestin PathHunter luminescence, 90 min; at 76.9 µM; stronger effect = higher value; zero percent set by DMSO-only wells.
Procedure, shortened: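 Luminescent readout of beta-Gal complementation quantifies ligand-induced beta-arrestin association with GPR32 in CHO-K1 cells; 90 min compound incubation at 37 °C, detection 1 h at room temperature.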
Note: 0% is about no effect.

UniProt O75388, sequence (O75388 whole entry, looked up): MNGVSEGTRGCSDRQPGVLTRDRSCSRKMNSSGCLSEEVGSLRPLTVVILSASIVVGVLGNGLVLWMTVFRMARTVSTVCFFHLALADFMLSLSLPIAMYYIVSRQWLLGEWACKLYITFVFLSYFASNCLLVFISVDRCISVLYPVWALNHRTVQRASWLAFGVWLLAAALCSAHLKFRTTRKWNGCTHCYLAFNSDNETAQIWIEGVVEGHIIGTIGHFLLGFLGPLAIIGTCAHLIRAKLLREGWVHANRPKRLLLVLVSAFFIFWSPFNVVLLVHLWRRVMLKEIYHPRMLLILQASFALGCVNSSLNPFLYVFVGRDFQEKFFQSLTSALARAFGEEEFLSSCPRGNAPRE

Structure (SMILES) | activation
Cc1c(C(=O)Nc2cccc(C(F)(F)F)c2)sc2nc[nH]c(=O)c12 | inactive: 20%
Cc1ccccc1Nc1c(-c2c(F)cccc2Cl)nc2ccc(Br)cn12 | inactive: -16.3%
CCOC(=O)c1ccc(NC(=O)CCCn2c(=O)c3cccn3c3ccccc32)cc1 | inactive: -20.8%
Cc1ccc(-n2ncc3c(NCCCN4CCOCC4)ncnc32)cc1C | inactive: 34.9%
COC(=O)c1ccc(C2Nc3c(C)cccc3-c3cc(C)nn32)cc1 (stereo unspecified) | inactive: -11.5%
O=C(Cn1c(=O)oc2cc(S(=O)(=O)NCc3ccccc3)ccc21)Nc1cccc(F)c1 | active: 67.3%
COc1ccccc1CNc1nc2c(S(=O)(=O)c3ccc(C)c(C)c3)nnn2c2ccc(Cl)cc12 | inactive: -3.99%
COc1ccc(NC(=O)C(NS(=O)(=O)c2cccc3nsnc23)C(C)C)cc1 (stereo unspecified) | inactive: -47.6%
COc1ccc(NC(=O)c2cc3ccccc3o2)c(OC)c1 | inactive: -9.37%
CCOC(=O)c1c(NC(=O)c2cc(-c3ccc(Br)cc3)on2)sc(C(C)=O)c1C | inactive: -9.84%
O=C(c1ccc(F)cc1)c1cn(Cc2ccccc2)c2cc3c(cc2c1=O)OCO3 | inactive: -8.57%
Cc1oc(-c2ccc(C(=O)Nc3ccc(F)cc3)cc2)nc1COc1ccccc1 | inactive: 28.7%
COc1ccc(C2=CC(c3cc(Br)ccc3F)n3c(nc4ccccc43)N2)cc1 (stereo unspecified) | inactive: -41%
O=C(Nc1c(C(=O)N2CCN(c3ccccc3F)CC2)oc2ccccc12)c1cccc(F)c1 | inactive: -8.39%
CC1CCCN(c2cc3c(cc2F)c(=O)c(S(=O)(=O)c2cccc(Cl)c2)cn3Cc2ccccc2)C1 (stereo unspecified) | inactive: -7.51%
O=C(COc1ccccc1Cl)Nc1ccc(-c2nc3ccccc3s2)cc1 | inactive: 5.36%
COc1ccc(CCNC(=O)C(=O)NCC(c2ccco2)S(=O)(=O)c2ccc(C)cc2)cc1 (stereo unspecified) | inactive: 18.1%
CC(C)NC(=O)c1ccc(Cn2c(SCc3ccc(F)cc3)nc3cccnc32)cc1 | inactive: 15%
O=C(CCn1c(=O)c2cccn2c2cccnc21)N1CCN(c2cccc(C(F)(F)F)c2)CC1 | inactive: -9.04%
Cc1cccc(CS(=O)(=O)c2ncc(Cl)c(C(=O)Nc3nnc(C(C)C)s3)n2)c1 | inactive: -9.43%
COc1ccc2c(c1)c(=O)c(S(=O)(=O)c1ccc(F)cc1)cn2Cc1ccccc1Cl | inactive: -5.09%
CC(C)(C)OC(=O)N1CCC(c2c(C(=O)N3CCN(c4ccccn4)CC3)cnn2-c2ccc(F)cc2)CC1 | inactive: -13.9%

Structure (SMILES) | activation
Cc1ccc(-c2cn3cccnc3n2)cc1NC(=O)Nc1ccc(F)cc1 | inactive: -7.87%
O=C(c1ccc2c(c1)OCO2)c1cn(Cc2ccc(Cl)cc2)c2ccc(F)cc2c1=O | inactive: -18.7%
O=C(Cn1ncc2c1-c1ccccc1OC2)N1CCN(c2ccccc2)CC1 | inactive: 15.4%
COCCNC(=O)CN1C(=O)c2cccnc2Sc2ccccc21 | inactive: -7.68%
COc1cccc2c(C)cc3nnc(SCC(=O)Nc4ccc(C)cc4)n3c12 | inactive: -34.3%
CC1CCC(NC(=O)c2ccc(CS(=O)(=O)c3ccc(Cl)cc3)o2)CC1 (stereo unspecified) | inactive: -18.7%
CCCCOc1ccc(C(=O)N2CCCCC2CCN2CCOCC2)cc1 (stereo unspecified) | inactive: 6.46%
CCN(CC)S(=O)(=O)c1ccc(C(=O)NCCSc2c(-c3ccc(F)cc3)[nH]c3ccccc23)cc1 | inactive: -14.4%
CC(=O)c1ccc(NC(=O)CSc2nc(-c3ccc(C)cc3)nc3c2c(=O)n(C)c(=O)n3C)cc1 | inactive: 0.398%
CCn1c(=O)cc(OCC(=O)N2CCN(c3ccc(C)cc3)C(C)C2)c2ccccc21 (stereo unspecified) | active: 74.2%
Cc1cc(Cl)ccc1OCC(=O)N(Cc1sccc1C)C1CCS(=O)(=O)C1 (stereo unspecified) | inactive: -16.9%
CC(C)OCCCNC(=O)CN1C(=O)c2cccnc2Sc2ccccc21 | inactive: -11%
COc1ccc(CNC(=O)c2cnc(N(C)C)nc2)cc1 | inactive: -9.76%
CCCOc1cccc(C(=O)N(Cc2sccc2C)C2CCS(=O)(=O)C2)c1 (stereo unspecified) | inactive: -32.2%
Cn1c(=O)n(Cc2ccccc2)c(=O)c2c1nc1n2CCN1c1ccccc1 | inactive: 4.56%
O=C(Cn1cc(SCc2c(F)cccc2Cl)c2ccccc21)N1CCCCC1 | inactive: -18.2%
Cc1cccn2cc(-c3cccc(NC(=O)C(C)C)c3)nc12 | inactive: 24.7%
CCN(CC)CCNC(=O)CN1N=C(c2ccc(OC)cc2)CCC1=O | inactive: 1.3%
COc1ccc(NC(=O)c2ccc(NC(=O)N3CCSc4ncccc43)cc2)cc1 | inactive: 29.3%
COCCn1c(CNC(=O)c2cccc(C)c2)nc2cccnc21 | inactive: -5.77%
COCCNC(=O)C1CCN(Cc2cc3ccccc3n2Cc2ccc(C)cc2)CC1 | inactive: 24.6%
COc1ccccc1NC(=O)C1=C(C)Nc2nc(SCc3ccccc3)nn2C1c1cccc(O)c1 (stereo unspecified) | inactive: 39.2%

Structure (SMILES) | activation
COc1ccc(OC)c(NS(=O)(=O)c2ccc(-n3cccn3)cc2)c1 | inactive: -3.74%
COc1ccc(NC(=O)c2nnn(Cc3nc(-c4cc(OC)c(OC)c(OC)c4)oc3C)c2C)cc1Cl | inactive: 8.89%
COc1ccccc1CNC(=O)c1ccc2[nH]c(C)c(C)c2c1 | inactive: -1.46%
O=C(COc1ccc(F)cc1)Nc1nnc(S(=O)(=O)N2CCCC2)s1 | inactive: 9.07%
COCCCNC(=O)Cn1c(=O)n(-c2ccc(C)c(C)c2)c(=O)c2c3c(sc21)CCCCC3 | inactive: 26.4%
CCCCNC(=O)C(CC)Sc1nc2ccccc2c(=O)n1Cc1ccco1 (stereo unspecified) | inactive: 3.46%
CCC(C)n1c(=O)c2sccc2n2c(CCCC(=O)NCc3ccccc3Cl)nnc12 (stereo unspecified) | inactive: -6.08%
COc1cc(NC(=O)C2CCN(S(=O)(=O)Cc3ccccc3)CC2)c(OC)cc1Cl | inactive: 4.71%
COCCNC(=O)c1sc2ncccc2c1-n1c(C)ccc1C | inactive: -16.5%
NCCCCCC(=O)O | inactive: 0.744% and inactive: 0.13%
Cc1cc(C)n2nc(CNC(=O)c3c(F)cccc3F)nc2n1 | inactive: -3.93%
Cc1ccc(C(=O)c2sc(Nc3ccccc3)c(S(=O)(=O)c3ccccc3)c2N)c(C)c1 | inactive: -0.169%
CCOC(=O)c1cccc(NC(=O)Cn2c(=O)c3cccn3c3ccccc32)c1 | inactive: -19.8%
Cc1cccc(N(C)S(=O)(=O)c2nnc(NC(=O)c3cccs3)s2)c1 | active: 73.2%
Cc1c2cnn(CC(=O)N3CCN(c4ccccc4)CC3)c(=O)c2c(C)n1Cc1ccccc1Cl | inactive: -11.9%
CC1=C(C)C(=O)C(C(CCCCCC(=O)O)c2ccccc2)=C(C)C1=O (stereo unspecified) | inactive: -3.01%
CC(=O)c1ccc(NC(=O)CCc2c(C)nc3c(c2C)c(=O)n(C)c(=O)n3C)cc1 | inactive: -0.851%
CC(=O)C1=C(c2ccccc2)N(C(C)=O)n2c(nnc2C2CCCCC2)S1 | inactive: -47.4%
CCCCN(C)CCCNC(=O)CN1N=C(c2ccc(OC)cc2)CCC1=O | inactive: 11.3%
CSc1ncc(Cl)c(C(=O)Nc2ccc(S(=O)(=O)Nc3nccc(C)n3)cc2)n1 | inactive: -38.9%
Cc1cc(C)cc(-n2cnc3cc(C(=O)NC4CCCCCC4)ccc32)c1 | inactive: -25%
Cc1ccc(CCNC(=O)c2ccc3[nH]c(C)c(C)c3c2)cc1 | inactive: 2.33%

Structure (SMILES) | activation
CCn1cc2nc(SCC(=O)Nc3ccc(C)cc3)n(Cc3ccc(C)cc3)c(=O)c2n1 | inactive: -29.4%
O=C(NCc1ccccc1F)c1sc2ncccc2c1-n1cccc1 | inactive: -17.4%
CCOc1ccc(C2=NC(c3cccs3)=Nc3ccc(CC)cc3N2)cc1OCC | inactive: -33.4%
O=S(=O)(NCCS(=O)(=O)N1CCN(c2cccc(Cl)c2)CC1)c1ccc(F)cc1 | inactive: -15.5%
CCN(CC)c1ccc(NC(=O)CN2CCN(c3ccccc3F)CC2)cc1 | inactive: -12.7%
O=C(O)Cn1cnnn1 | inactive: -15.7%
COC(=O)CN1C(=O)C(C)(C)c2cc(S(=O)(=O)Nc3ccc(Br)cc3F)ccc21 | inactive: -17.9%
Cc1[nH]c2ccc(Br)cc2c1CCNC(=O)c1cc2ccccc2oc1=O | inactive: 1.18%
CC(=O)N1CCCc2cc(S(=O)(=O)N3CCCC(C(=O)Nc4ccc(C)cc4C)C3)ccc21 (stereo unspecified) | inactive: -2.66%
CNCCc1ccccn1 | inactive: -15.5%
COc1ccc(-n2nc3cc(C)c(NC(=O)c4ccc(-c5ccc(Br)cc5)o4)cc3n2)cc1 | inactive: -6.14%
COc1cc(OC)cc(C(=O)Nc2cc3c(cc2N2CCOCC2)n(C)c(=O)n3C)c1 | inactive: 6.99%
Cc1cc(C)n(CCc2nc3c4ccccc4nc(N4CCN(c5cccc(C)c5C)CC4)n3n2)n1 | inactive: 13.1%
CC(=O)c1cccc(-n2c(=O)c3c4c(sc3n(Cc3cccc(C)c3)c2=O)CN(C(C)=O)CC4)c1 | inactive: -4.87%
Cc1cccc(NC(=O)CN2C(=O)C(c3ccccc3)=NC23CCC(C)CC3)c1 (stereo unspecified) | inactive: -12.7%
CCN(CC)CCNC(=O)C(=O)NCC(c1ccc2c(c1)OCO2)N1CCOCC1 (stereo unspecified) | inactive: -6.19%
CCOc1ccc(-c2nnc(SCC(=O)NCc3ccccc3Cl)o2)cc1 | inactive: -5.59%
CCCN1C(=O)c2[nH]nc(-c3ccccc3)c2C1c1cccc(O)c1 (stereo unspecified) | inactive: -8.85%
O=C(CSc1cn(CC(=O)N2CCCCC2)c2ccccc12)NCc1ccccc1 | inactive: -13.6%
COCc1cc(C)nc2c1C(=O)NC(c1ccc(C)cc1)N2Cc1ccccc1 (stereo unspecified) | inactive: -11.9%
